This experiment has as its system NCI-H322M lung. Kind of experiment: NCI anticancer screen, dose series, 48 h.

Where “and” joins values, the source holds several entries; their conditions need not be identical. Equal values may be shown once.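 Grown in 96-well plates, cells were treated for 48 hours with each compound at five concentrations. Insufficient inhibition: endpoint recorded as highest concentration tested. The concentration for 50% growth inhibition is given as GI50. At the TGI there is no net growth.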

Compound `C[n+]1c2ccccc2c(CNc2ccc(S(=O)(=O)N=C(N)N)cc2)c2ccccc21` came in with a TGI greater than 100 µM. `O=S(=O)(O)O.[NH-]C1CCCCC1[NH-].[Pt+2]` (configuration not stated): the GI50 is greater than 100 µM and the TGI was greater than 100 µM. On to `C=CCc1cc(-c2cc(CC=C)c(O)c(CN(CCCl)CCCl)c2)cc(CN(CCCl)CCCl)c1O`, for which the TGI came out at 47.6 µM. Take `Cn1nccc1Nc1nccc(-c2cc3c(s2)C(C)(C)N(CCN2CCOCC2)C3=O)n1`: the GI50 is 3.96 µM and the TGI was greater than 100 µM. In the case of `C/C=C(C)/C=C/CC(C)CCC=C(C)C` (configuration not stated), the TGI is greater than 100 µM.

Consider `CC1C(=O)OC2CC[N+]3(CC(=O)c4ccc(Br)cc4)CC=C(COC(=O)C(C)(O)C1(C)O)C23` (configuration not stated), for which the TGI was greater than 375 µM. With `COc1cc(-c2nc(Nc3nc4ccccc4[nH]3)nc(N)c2C#N)cc(OC)c1OC`, the GI50 is 32.8 µM and the TGI was greater than 100 µM. As for `CC(C)(C)NC(C1=CC(C)(C)c2ccccc2C1=O)c1ccccc1` (configuration not stated), the GI50 was 2.42 µM and the TGI amounted to 7.47 µM. The compound `COc1ccccc1C1SCC(=O)N1c1ccc(-n2c(-c3ccccc3)nc3ccccc3c2=O)cc1` (configuration not stated) had a TGI greater than 100 µM. As to `COc1cc2nc3sc(C(=O)Nc4ccc(C(=O)OC(C)C)cc4)c(C(=O)Nc4ccc(Cl)cc4C)n3c(=O)c2cc1OC`, the GI50 is 1.04 µM and the TGI came to 23 µM. In the case of `COC(=O)NC1C(C)OC(OC2C/C=C(/C)C3C=CC4C(OC5CC(OC6CC(O)C(OC7CC(O)C(OC)C(C)O7)C(C)O6)C(O)C(C)O5)C(C)CC(C)C4C3(C)/C(O)=C3\C(=O)OC4(CC(C)C(CO)=CC4/C=C\2C)C3=O)CC1(C)[N+](=O)[O-]` (configuration not stated), the GI50 was 16.6 µM; the TGI was 50 µM and 19.8 µM. `COc1cccc2c1CCc1ccccc1CC2=O` displayed a TGI greater than 100 µM. Still for that read-out and setting: in the case of `N#C[S-].[Nd+3].c1cnc2c(c1)ccc1cccnc12.c1cnc2c(c1)ccc1cccnc12.c1cnc2c(c1)ccc1cccnc12` it was 12.4 µM. Take `COc1cc(C(=O)c2ccc3c(c2)OCO3)cc(OC)c1OC`: the GI50 was 4.44 µM and the TGI was greater than 100 µM.

Take `Cc1cc(C)nc(NS(=O)(=O)c2ccc(Nc3nncc(=O)n3N)cc2)n1`: the TGI is greater than 100 µM. Same read-out and setting: next, `CS(=O)(=O)NNS(=O)(=O)c1cccc([N+](=O)[O-])c1`: greater than 100 µM; `O=C1C=CC2(O[C@H](c3ccccc3)[C@@H](c3ccccc3)O2)C(SC(=O)c2ccccc2)C1` (some centres not stated): 26.8 µM.

`O=C(O)C(CP(=O)(O)O)=C(Cl)Cl` came in with a TGI greater than 100 µM. In turn, `COc1cccc(-c2cc(=O)c3cc(OC)c(OC)cc3[nH]2)c1` gave a TGI of 91.5 µM. `CCN1CCC(O)(c2ccc(C)cc2)C(C(=O)c2ccc(C)cc2)C1` (configuration not stated): the TGI is greater than 100 µM. On to `O=C1NN(c2ccc(C(=O)O)cc2)C(=O)/C1=C\c1ccc([N+](=O)[O-])o1`, for which the GI50 was greater than 100 µM and the TGI is greater than 100 µM. Turning to `COc1cc(N=CN(C)C)c2ncccc2c1`, the TGI is greater than 100 µM. `CCOC(=O)c1ccc(Nc2nc3cc(C(F)(F)F)ccc3nc2-c2ccccc2)cc1` displayed a TGI greater than 100 µM. For the compound `C=C1C(=O)O[C@H]2[C@H]1CC/C(COC(=O)CCCCC(=O)OC/C1=C/CC[C@@]3(C)O[C@H]3[C@H]3OC(=O)C(=C)[C@@H]3CC1)=C\CC[C@@]1(C)O[C@@H]21`, the GI50 was 54.2 µM and the TGI is greater than 100 µM. As to `CC1=CC(=NC(=O)CBr)C=C/C1=N\S(=O)(=O)c1ccccc1`, the GI50 is 14.7 µM and the TGI was found to be 28.3 µM. Consider `c1ccc(Cn2cc3c(c2-c2ccccc2)CCc2cnoc2-3)cc1`, for which the GI50 is 9.28 µM and the TGI is greater than 100 µM. Turning to `CC1=C[C@H]2c3c(c(O)c(O)c4oc5c(C)cccc5c(=O)c34)[C@H](c3cc(O)c(O)c4oc5c(C)cccc5c(=O)c34)[C@H]2C(C)(C)C1`, the GI50 was 2.04 µM and the TGI worked out at 11.6 µM.

The compound `CC(C)=CCC[C@@H](C)C1=C(O)C(Nc2ccccc2Br)=C(C)C(=O)C1=O` displayed a TGI of 66.3 µM. In the case of `OC(c1nc2ccccc2s1)(C(F)(F)F)C(F)(F)F`, the TGI is greater than 100 µM. Same read-out and setting: next, `CCOC(=O)/C(=C\c1ccc(O)c(OC)c1)C(=O)c1ccccc1`: greater than 54.4 µM. For the compound `Oc1ccc2cc(Br)ccc2c1-c1c(O)ccc2cc(Br)ccc12`, the GI50 is 3.31 µM and the TGI is 14.1 µM. Regarding `Cc1ccc(S(=O)(=O)N2CC3OC(C)(C)OC3C2CO)cc1` (configuration not stated), the TGI was greater than 100 µM. Same read-out and setting: in the case of `CC1=NN(c2nc(N)nc(CCl)n2)CC1` it was greater than 100 µM; in that of `CC(C)(C)OC(=O)N(O)[C@@H]1C=C[C@H](n2cnc3c(N)ncnc32)C1`, greater than 100 µM. With `Cc1ccc(S(=O)(=O)N2CCN(S(=O)(=O)c3ccc(C)cc3)Cc3ccccc3C2)cc1`, the TGI was greater than 100 µM.

In the case of `N#Cc1ccc(Oc2nc3ccccc3nc2-c2ccccc2)cc1`, the TGI is greater than 100 µM. Same read-out and setting: in the case of `COc1ccc(NC(=O)CC(=O)N2N=C(N3CCCCC3)CC2c2ccccc2)cc1` (configuration not stated) it was greater than 100 µM; in that of `CC(=O)N1c2ccccc2C23CCN(C)CC4C(C)OCC(C4CC2=O)C13` (configuration not stated), greater than 100 µM. On to `Cc1nn(-c2nc3ccccc3s2)c(C)c1Oc1ccccc1O`, for which the GI50 is 13.2 µM and the TGI came out at 26.7 µM. On the same counts, the results for `C[n+]1c(/C=C\c2ccc(Cl)cc2)ccc2ccccc21` are 37.2 µM and greater than 100 µM. Regarding `COc1ccc(CN2C[C@H]3[C@@H](CC(=O)O[C@H]3C)CC2=O)cc1`, the TGI was greater than 100 µM. Still for that read-out and setting: next, `CSc1c(C(=O)Nc2ccc(Cl)cc2)c(N)nn1-c1ccccc1`: greater than 100 µM; `Cc1nc2c(n1CCO)C(=O)c1ccccc1C2=O`: greater than 100 µM; `O=C(O)CCCCCCC[C@@H]1S[C@H]1CCCCCCO`: greater than 100 µM. Same read-out and setting: in the case of `C=CC(Cl)(CBr)CCC(Br)=C(C)C` (configuration not stated) it was greater than 100 µM. On the same count and under the same terms, in the case of `CC(=O)Oc1ccc2c(c1)Oc1cc(C(C)=O)ccc1C21OC(=O)c2ccccc21` (configuration not stated) it was greater than 100 µM; in that of `C=CCCC(OCOCCOC)c1cc(C)c(O[Si](C)(C)C(C)(C)C)c(C)c1` (configuration not stated), 46.9 µM.

`C/C(CC(=O)Nc1ccc(Cl)c(Cl)c1)=N/NC(=O)C[n+]1ccccc1` gave a TGI greater than 100 µM. The same measure, in the same setting: in the case of `O=c1cccccc1NCCOCCNc1cccccc1=O` it was greater than 100 µM. Regarding `CC(=O)[CH-]C(=O)c1ccccc1.CC(=O)[CH-]C(=O)c1ccccc1.CC[O-].CC[O-].[Zr+4]`, the GI50 was 53.3 µM and the TGI is greater than 100 µM.

In the case of `Cn1cc(C2=C(c3cccc4ccccc34)C(=O)NC2=O)c2ccccc21`, the GI50 was 10.9 µM and the TGI is greater than 25 µM. Regarding `O=C(Nc1cc(C(=O)Nc2cccc(S(=O)(=O)O)c2)cc(C(=O)Nc2cccc(S(=O)(=O)O)c2)c1)c1cccc(C(=O)Nc2cc(C(=O)Nc3cccc(S(=O)(=O)O)c3)cc(C(=O)Nc3cccc(S(=O)(=O)O)c3)c2)c1`, the TGI was greater than 100 µM.

Turning to `CCOc1cccc(/C=N/NC(=O)c2ccc(Nc3ccnc(C(F)(F)F)c3)cc2)c1O`, the GI50 was 1.09 µM and the TGI is greater than 100 µM. The compound `COc1ccc2c(=O)c(C)c(-c3ccccc3)oc2c1CN(C)C` came in with a TGI greater than 100 µM. Regarding `COc1cc(N(CCC#N)CCC#N)ccc1/C=C1\SC(=S)NC1=O`, the TGI was greater than 100 µM.

Consider `Cn1cc(-c2nc(-c3c[nH]c4ncccc34)cs2)c2cc(F)ccc21`, for which the GI50 is 1.75 µM and the TGI was determined as 12.9 µM. In the same order, the values of `CCCN(CCC)C(=O)C1=Cc2ccc(-c3ccc(C(=O)N4CCCC4)cc3)cc2N=C(N)C1` are 16.5 µM and 49.9 µM.

(Values after PubChem BioAssay (NCI).)
